According to a collection of fitness landscapes (doi:10.1016/j.celrep.2020.107928):
Over roughly 81,000 sequences, “one-hybrid fitness for binding parS DNA” has its median near -0.17; the highest 2% begin near 0.51. This is one part of the list.

B1: Caulobacter ParB omega fusion; a variant is named by its letters at X, in order, B8GW30 (parent)
chain: MESVVVGEPGMSEGRRGLGRGLSALLGEVDAAPAQAPGEQLGGSREAPIEILQRNPDQPRRTFREEDLEDLSNSIREKGVLQPILVRPSPDTAGEYQIVAGERAWRAAQRAGLKTVPIMVRELDDLAVLEIGIIENVQRADLNVLEEALSYKVLMEKFERTQENIAQTIGKSXSHVANXMRLLXLPDEVQSYLVSGELTAXHARAIAAAADPVALAKQIIEGGLSVRETEALARKAPNLSAGKSKGGRPPRVKDTDTQALESDLSSVLGLDVSIDHRGSTGTLTITYATLEQLDDLCNRLTRGI

Variants of: B1
Assay: one-hybrid fitness for binding parS DNA (scaled: cognate 1, non-cognate 0); higher = stronger binding
Settings: with parS DNA site
Procedure, shortened: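 In E. coli USO, a HIS3 reporter with its site placed 19 bp from the promoter was used to select Caulobacter ParB variants randomised at four specificity codons. Growth lasted 48 hours at 37°C on histidine-free M9 containing 0.1 mM IPTG and 5 mM 3-AT. Fitness was taken as the log change in variant-to-wild-type read ratio from Illumina sequencing of pre- and post-selection plasmids, rescaled between the non-cognate and cognate sites.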

First: ADCC
Second: RMFA
The “one-hybrid fitness for binding parS DNA” value of the first is lower: no more than 0.2 for the first, 0.61 for the second.

NNMC and VWDV cannot be ordered by “one-hybrid fitness for binding parS DNA” value: no more than 0.2 for the first, no more than 0.2 for the second.

Going from RVKM to LIRS, the “one-hybrid fitness for binding parS DNA” value falls from 0.393 to no more than 0.2.

SKCG and VACG cannot be ordered by “one-hybrid fitness for binding parS DNA” value: no more than 0.2 for the first, no more than 0.2 for the second.

LYFT and VHHE cannot be ordered by “one-hybrid fitness for binding parS DNA” value: no more than 0.2 for the first, no more than 0.2 for the second.

TKVQ and YRFA cannot be ordered by “one-hybrid fitness for binding parS DNA” value: no more than 0.2 for the first, no more than 0.2 for the second.

FLPK and AWMV cannot be ordered by “one-hybrid fitness for binding parS DNA” value: no more than 0.2 for the first, no more than 0.2 for the second.

HCAR and TEPW cannot be ordered by “one-hybrid fitness for binding parS DNA” value: no more than 0.2 for the first, no more than 0.2 for the second.

RDQL and HGAC cannot be ordered by “one-hybrid fitness for binding parS DNA” value: no more than 0.2 for the first, no more than 0.2 for the second.

WSWS and VQPV cannot be ordered by “one-hybrid fitness for binding parS DNA” value: no more than 0.2 for the first, no more than 0.2 for the second.

HGSC and TSYE cannot be ordered by “one-hybrid fitness for binding parS DNA” value: no more than 0.2 for the first, no more than 0.2 for the second.

ECTG and EPRC cannot be ordered by “one-hybrid fitness for binding parS DNA” value: no more than 0.2 for the first, no more than 0.2 for the second.

RVLV and IYTR cannot be ordered by “one-hybrid fitness for binding parS DNA” value: no more than 0.2 for the first, no more than 0.2 for the second.

EETR and ASEC cannot be ordered by “one-hybrid fitness for binding parS DNA” value: no more than 0.2 for the first, no more than 0.2 for the second.

YTGK and SVDC cannot be ordered by “one-hybrid fitness for binding parS DNA” value: no more than 0.2 for the first, no more than 0.2 for the second.

GTGA and RKPY cannot be ordered by “one-hybrid fitness for binding parS DNA” value: no more than 0.2 for the first, no more than 0.2 for the second.

PRGM and LNSL cannot be ordered by “one-hybrid fitness for binding parS DNA” value: no more than 0.2 for the first, no more than 0.2 for the second.

NTMP and GTWG cannot be ordered by “one-hybrid fitness for binding parS DNA” value: no more than 0.2 for the first, no more than 0.2 for the second.

SIAV and SGWS cannot be ordered by “one-hybrid fitness for binding parS DNA” value: no more than 0.2 for the first, no more than 0.2 for the second.

AYTH and AVSW cannot be ordered by “one-hybrid fitness for binding parS DNA” value: no more than 0.2 for the first, no more than 0.2 for the second.

PVAL and MDGR cannot be ordered by “one-hybrid fitness for binding parS DNA” value: no more than 0.2 for the first, no more than 0.2 for the second.

TLCT and KSAT cannot be ordered by “one-hybrid fitness for binding parS DNA” value: no more than 0.2 for the first, no more than 0.2 for the second.

NQGG and HGMV cannot be ordered by “one-hybrid fitness for binding parS DNA” value: no more than 0.2 for the first, no more than 0.2 for the second.

LRHW and NAAR cannot be ordered by “one-hybrid fitness for binding parS DNA” value: no more than 0.2 for the first, no more than 0.2 for the second.

EDWR and PGVY cannot be ordered by “one-hybrid fitness for binding parS DNA” value: no more than 0.2 for the first, no more than 0.2 for the second.

ERPE and LLFL cannot be ordered by “one-hybrid fitness for binding parS DNA” value: no more than 0.2 for the first, no more than 0.2 for the second.

NKCS and NDKT cannot be ordered by “one-hybrid fitness for binding parS DNA” value: no more than 0.2 for the first, no more than 0.2 for the second.

PRGD and VMNG cannot be ordered by “one-hybrid fitness for binding parS DNA” value: no more than 0.2 for the first, no more than 0.2 for the second.

First: NHKR
Second: RQHY
The “one-hybrid fitness for binding parS DNA” value of the first is lower: no more than 0.2 for the first, 0.461 for the second.

HWFT and FRCC cannot be ordered by “one-hybrid fitness for binding parS DNA” value: no more than 0.2 for the first, no more than 0.2 for the second.

LPCR and LLLM cannot be ordered by “one-hybrid fitness for binding parS DNA” value: no more than 0.2 for the first, no more than 0.2 for the second.

SVEA and RLYD cannot be ordered by “one-hybrid fitness for binding parS DNA” value: no more than 0.2 for the first, no more than 0.2 for the second.

YNGC and VIGY cannot be ordered by “one-hybrid fitness for binding parS DNA” value: no more than 0.2 for the first, no more than 0.2 for the second.

TKKY and NTNG cannot be ordered by “one-hybrid fitness for binding parS DNA” value: no more than 0.2 for the first, no more than 0.2 for the second.

SEAG and TNLA cannot be ordered by “one-hybrid fitness for binding parS DNA” value: no more than 0.2 for the first, no more than 0.2 for the second.

KMVQ and TAHI cannot be ordered by “one-hybrid fitness for binding parS DNA” value: no more than 0.2 for the first, no more than 0.2 for the second.

QPEG and AKYM cannot be ordered by “one-hybrid fitness for binding parS DNA” value: no more than 0.2 for the first, no more than 0.2 for the second.

PSDN and SWNR cannot be ordered by “one-hybrid fitness for binding parS DNA” value: no more than 0.2 for the first, no more than 0.2 for the second.

KNGV and TVTE cannot be ordered by “one-hybrid fitness for binding parS DNA” value: no more than 0.2 for the first, no more than 0.2 for the second.

RVDV and ALLF cannot be ordered by “one-hybrid fitness for binding parS DNA” value: no more than 0.2 for the first, no more than 0.2 for the second.

AVHI and GKRS cannot be ordered by “one-hybrid fitness for binding parS DNA” value: no more than 0.2 for the first, no more than 0.2 for the second.

YQSC and IPMC cannot be ordered by “one-hybrid fitness for binding parS DNA” value: no more than 0.2 for the first, no more than 0.2 for the second.

LSCA and WSMT cannot be ordered by “one-hybrid fitness for binding parS DNA” value: no more than 0.2 for the first, no more than 0.2 for the second.

RMDE and WNYS cannot be ordered by “one-hybrid fitness for binding parS DNA” value: no more than 0.2 for the first, no more than 0.2 for the second.

CTPK and VVHM cannot be ordered by “one-hybrid fitness for binding parS DNA” value: no more than 0.2 for the first, no more than 0.2 for the second.

AFQF and DPDV cannot be ordered by “one-hybrid fitness for binding parS DNA” value: no more than 0.2 for the first, no more than 0.2 for the second.

AAIF and TYKM cannot be ordered by “one-hybrid fitness for binding parS DNA” value: no more than 0.2 for the first, no more than 0.2 for the second.

YASG and YAEV cannot be ordered by “one-hybrid fitness for binding parS DNA” value: no more than 0.2 for the first, no more than 0.2 for the second.

APSW and HWKR cannot be ordered by “one-hybrid fitness for binding parS DNA” value: no more than 0.2 for the first, no more than 0.2 for the second.

KQPV and NGAE cannot be ordered by “one-hybrid fitness for binding parS DNA” value: no more than 0.2 for the first, no more than 0.2 for the second.

LSHK and LPHL cannot be ordered by “one-hybrid fitness for binding parS DNA” value: no more than 0.2 for the first, no more than 0.2 for the second.

NAGT and VVMS cannot be ordered by “one-hybrid fitness for binding parS DNA” value: no more than 0.2 for the first, no more than 0.2 for the second.

MAIS and HETS cannot be ordered by “one-hybrid fitness for binding parS DNA” value: no more than 0.2 for the first, no more than 0.2 for the second.

VFKN and EQLT cannot be ordered by “one-hybrid fitness for binding parS DNA” value: no more than 0.2 for the first, no more than 0.2 for the second.

LVQG and HSLC cannot be ordered by “one-hybrid fitness for binding parS DNA” value: no more than 0.2 for the first, no more than 0.2 for the second.

SWAK and PQYA cannot be ordered by “one-hybrid fitness for binding parS DNA” value: no more than 0.2 for the first, no more than 0.2 for the second.

RCPD and APFS cannot be ordered by “one-hybrid fitness for binding parS DNA” value: no more than 0.2 for the first, no more than 0.2 for the second.

FFKG and MHYT cannot be ordered by “one-hybrid fitness for binding parS DNA” value: no more than 0.2 for the first, no more than 0.2 for the second.

VNMP and PPDL cannot be ordered by “one-hybrid fitness for binding parS DNA” value: no more than 0.2 for the first, no more than 0.2 for the second.

DMPS and SLKK cannot be ordered by “one-hybrid fitness for binding parS DNA” value: no more than 0.2 for the first, no more than 0.2 for the second.

EFEE and CAFN cannot be ordered by “one-hybrid fitness for binding parS DNA” value: no more than 0.2 for the first, no more than 0.2 for the second.

KLHF and VAAR cannot be ordered by “one-hybrid fitness for binding parS DNA” value: no more than 0.2 for the first, no more than 0.2 for the second.

AAMV and GVIY cannot be ordered by “one-hybrid fitness for binding parS DNA” value: no more than 0.2 for the first, no more than 0.2 for the second.

LEVV and NDDT cannot be ordered by “one-hybrid fitness for binding parS DNA” value: no more than 0.2 for the first, no more than 0.2 for the second.

RDSG and YGRN cannot be ordered by “one-hybrid fitness for binding parS DNA” value: no more than 0.2 for the first, no more than 0.2 for the second.

WGCG and LYDV cannot be ordered by “one-hybrid fitness for binding parS DNA” value: no more than 0.2 for the first, no more than 0.2 for the second.

PHAQ and HVPA cannot be ordered by “one-hybrid fitness for binding parS DNA” value: no more than 0.2 for the first, no more than 0.2 for the second.

DSCG and AMPF cannot be ordered by “one-hybrid fitness for binding parS DNA” value: no more than 0.2 for the first, no more than 0.2 for the second.

SFMS and WEST cannot be ordered by “one-hybrid fitness for binding parS DNA” value: no more than 0.2 for the first, no more than 0.2 for the second.

SRLK and GLVT cannot be ordered by “one-hybrid fitness for binding parS DNA” value: no more than 0.2 for the first, no more than 0.2 for the second.

MAPY and TAYV cannot be ordered by “one-hybrid fitness for binding parS DNA” value: no more than 0.2 for the first, no more than 0.2 for the second.

HPKK and LEYL cannot be ordered by “one-hybrid fitness for binding parS DNA” value: no more than 0.2 for the first, no more than 0.2 for the second.

QQHW and KLWC cannot be ordered by “one-hybrid fitness for binding parS DNA” value: no more than 0.2 for the first, no more than 0.2 for the second.

FTYR and HDKL cannot be ordered by “one-hybrid fitness for binding parS DNA” value: no more than 0.2 for the first, no more than 0.2 for the second.

SKGC and HTSS cannot be ordered by “one-hybrid fitness for binding parS DNA” value: no more than 0.2 for the first, no more than 0.2 for the second.

PHCR and WREG cannot be ordered by “one-hybrid fitness for binding parS DNA” value: no more than 0.2 for the first, no more than 0.2 for the second.

For VFYG, the “one-hybrid fitness for binding parS DNA” value was no more than 0.2.
